Reference: PubChem BioAssay AID686971 (National Center for Advancing Translational Sciences (NCATS), 2013)
Among all 360,000 compounds or so, about 7,500 (2.1%) were called active. This list was built around the results that the source calls inconclusive (neither active nor inactive); the mix of calls is not that of the screen. The call rests on the fitted dose curve; in most records, active means well fitted cell-killing curve with a large enough effect; inconclusive means small, poorly fitted or top-dose-only effect, or effect the other way, or another doubt; inactive means no such curve, though single readings can be large or run the other way. Potencies of inconclusive entries are left out as doubtful fits.

assay: qHTS for induction of synthetic lethality in tumor cells producing 2HG: qHTS for the HT-1080-IDH1KD cell line; conditions: HT-1080 IDH1 knockdown viability, ATP luminescence, 48 h; series mostly up to 46.1 µM
Summary of the method: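 After a 2 h attachment period, IDH1KD HT-1080 cells took pin-transferred compound for 48 h at 37 °C; ATP-based luminescence after 10 min room-temperature reagent incubation reported viability.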
Potency means the concentration at half of the fitted maximal effect; tags describe the fitted curve by direction and shape.

SMILES	Potency
COc1ccc(OC)c(NC(=O)COc2coc(CN3CCCc4ccccc43)cc2=O)c1	inconclusive [cytotoxic, single point]
C=CCC[C@H](Cc1ccc(F)cc1)C(=O)OC[C@@H](Cc1c[nH]c2ccccc12)NC(=O)[C@H](CC=C)CC(=O)N(CCO)Cc1ccccc1	inconclusive [cytotoxic, single point]
NS(=O)(=O)c1ccc(NCc2ccccc2OCc2ccccc2F)cc1	inactive
C=CCn1c(NC(C)c2cc(Cl)ccc2O)nc2ccccc21 (centres undefined)	inconclusive [cytotoxic, single point]
N#CC1=C(N)Oc2c(sc3ccccc23)C1c1ccco1 (centres undefined)	inconclusive [cytotoxic, single point]
CC1Cc2nc(SCC(N)=O)n(Cc3ccccc3)c(=O)c2S1 (centres undefined)	inactive
O=C(C1=C[C@H](c2csc3ccccc23)C[C@H](OCc2ccc(CO)cc2)O1)N1CCCCCCC1	inactive
CCc1ccc(S(=O)(=O)NCc2ccc(C(=O)NCCN(Cc3ccccc3)C(C)C)cc2)cc1	active: 16.4 µM
COc1cccc(-c2cnc3c(NC(C)=O)cc(-c4cc(F)ccc4OC)cn23)c1	active: 9.2 µM
Cc1cc(=O)oc2ccc(OC(=O)CC(C)C)cc12	inactive
O=C(Nc1nc(-c2nc3ccccc3s2)cs1)c1ccc(S(=O)(=O)N2CCOCC2)cc1	inconclusive [cytotoxic, partial curve]
CC(C)(Oc1ccc(Cl)cc1)C(=O)N/N=C/c1cn[nH]c1-c1ccccc1	inconclusive [cytotoxic, single point]
NC(=O)c1ccc(NC(=O)CSC2=Nc3ccccc3C3CC=NN23)cc1 (centres undefined)	inconclusive [cytotoxic, single point]
N/C(=N\OC(=O)CC(c1ccccc1)c1ccccc1)c1cccnc1	inconclusive [cytotoxic, single point]
CC(=O)c1c(C)[nH]c(C(=O)OCC(=O)N(CC(C)C)C2CCS(=O)(=O)C2)c1C (centres undefined)	inactive
Cc1cn([C@H]2C=C[C@@H](CO)O2)c(=O)[nH]c1=O	inconclusive [rising, partial curve]
Cc1c(C(=O)N(C)Cc2nc3ccccc3c(=O)[nH]2)oc2ccccc12	inconclusive [cytotoxic, partial curve]
COc1ccc(CCNC(=O)c2ccc3c(c2)N(Cc2ccc(C)cc2)CCS3)cc1OC	inactive
Clc1cccc2c1Sc1ccccc1CC2N1CCNCC1 (centres undefined)	active: 18.4 µM
CC(=O)c1c(C)[nH]c(C(=O)NCc2ccccc2F)c1C	inactive
COc1cc(/C=C2/CC/C(=C/c3ccc(O)c(OC)c3)C2=O)ccc1O	active: 20.6 µM
COc1ccc(C(=O)N/N=C/c2ccc(OC)c(COc3ccc(F)cc3F)c2)cc1	inactive
Cc1cc(C)nc(NC2=NCCN2C(=S)Nc2ccc(C)c(C)c2)n1	inconclusive [rising, single point]
COc1ccc(C(CNC(=O)c2ccco2)N2CCOCC2)cc1 (centres undefined)	inactive
CCOC(=O)c1c(-c2ccccc2)oc2ccc(OCC(O)CN(C)C)cc12 (centres undefined)	active: 14.6 µM

SMILES	Potency
O=c1oc(CCO)cc2ccc(Br)cc12	inactive
COc1ccc(NC(=O)c2cc(C3CCCCN3C(=O)c3ccccc3)on2)c(C)c1 (centres undefined)	inactive
C=CCN1C(=O)S/C(=C\c2ccc3c(c2)n(C)c(=O)n3C)C1=O	inactive
C#Cc1cc(N2CCN(C(=O)c3ccoc3)CC2)n2nc(-c3cccc(Cl)c3)cc2n1	active: 9.2 µM
CC(C)Sc1cc(Cl)nc(NC(=O)Nc2ccccc2)n1	inactive
CC[C@]12c3[nH]c4ccc(Cl)cc4c3CCN1C(=O)[C@@H](CC(=O)NCc1cccc(C(F)(F)F)c1)C[C@@H]2C(=O)N1CCN(C(=O)C2CC2)CC1	inconclusive [cytotoxic, single point]
O=C(CNC(=O)Cc1ccccc1)NCC(=O)N1CCN(C(c2ccccc2)c2ccccc2)CC1	inactive
CCCCn1ccnc1C(=O)c1cccc(S(=O)(=O)N2CC(C)CC(C)C2)c1 (centres undefined)	inconclusive [cytotoxic, single point]
Cc1nn(Cc2ccccc2)c(Cl)c1C(=O)OCC#N	inactive
O=C1/C(=C\c2ccc(O)cc2)CCC1CNc1ccc(Cl)cc1 (centres undefined)	inconclusive [cytotoxic, single point]
CCOc1ccccc1C(=O)N1CCN(c2cccc(Cl)c2)CC1	active: 0.112 µM
CC/C(=N\NC(=S)Nc1ccc(OC)cc1)c1ccc(OC(F)F)cc1	inconclusive [cytotoxic, single point]
C#CCOCCOCCOCCNc1nc(N2CCN(C(=O)CCCCCCCCCCNC(=O)[C@@H]([C@H](C)O)n3cc(C)nn3)CC2)nc(N2CCN(C(=O)CCCCCCCCCCNC(=O)[C@@H]([C@H](C)O)n3cc(C)nn3)CC2)n1	active: 20.6 µM
CCCNC(=O)c1cc(C2CCCCN2C(=O)c2cc(OC)c(C)c(OC)c2)on1 (centres undefined)	inactive
Cc1c(C(=O)Nc2ccc(-c3nnc4n3CCCCC4)cc2)oc2c1ccc1ccccc12	active: 14.6 µM
CCC(=O)Nc1cccc(C(=O)/C=C/c2ccc(F)cc2)c1	inconclusive [cytotoxic, single point]
CC(=O)c1sc2nc(-c3ccco3)ccc2c1N	inactive
COc1ccc(OC)c(/C=C/C(=O)c2ccc(Cl)cc2)c1	inconclusive [cytotoxic, single point]
O=c1c(Cc2ccc(Cl)cc2)c(O)ccn1Cc1cccs1	inactive
CC1CN2C(c3ccc(Cl)cc3)=CSC2=N1 (centres undefined)	inactive
COc1ccccc1-c1nnc2sc(-c3cnccn3)nn12	inactive
O=[N+]([O-])c1ccc2nc(/C=C/c3ccc(Cl)cc3)[nH]c2c1	inconclusive [cytotoxic, single point]
O=C(Oc1ccccc1C(=O)Nc1ccccc1)c1ccccc1Br	active: 7.31 µM
COc1ccc(-c2cc(C(=O)N3CCN(c4ccccc4)CC3)no2)cc1OC	inactive
